According to the CheMixHub viscosity set:
Where “and” joins values, the source holds several entries; their conditions need not be identical. Equal entries are not always repeated. The source gives many values for each of these; only a part stands here.

Assay: xn = mol fraction of the nth substance listed

C1COCCO1 + O
Details	viscosity
311.15 K, 101 kPa, x1 = 0.8686	1.004 mPa·s
311.15 K, 101 kPa, x1 = 0.9092	0.9862 mPa·s
311.15 K, 101 kPa, x1 = 0.976	0.962 mPa·s
311.15 K, 101 kPa, x2 = 0.0145	0.9547 mPa·s
313.15 K, 101 kPa, x1 = 0.2	1.327 mPa·s
313.15 K, 101 kPa, x1 = 0.4	1.273 mPa·s
313.15 K, 101 kPa, x1 = 0.6	1.087 mPa·s
313.15 K, 101.3 kPa, x2 = 0.09407	0.944 mPa·s
313.15 K, 101.3 kPa, x2 = 0.2053	0.9835 mPa·s
313.15 K, 101.3 kPa, x2 = 0.7952	1.376 mPa·s
313.15 K, 101.3 kPa, x2 = 0.8661	1.25 mPa·s and 1.251 mPa·s
313.15 K, 101.3 kPa, x2 = 0.9391	0.9756 mPa·s and 0.9755 mPa·s
313.15 K, 101.3 kPa, x2 = 0.9742	0.7973 mPa·s and 0.7976 mPa·s
313.15 K, 101.32 kPa, x1 = 0.02221	0.7386 mPa·s
313.15 K, 101.32 kPa, x1 = 0.04863	0.863 mPa·s
313.15 K, 101.32 kPa, x1 = 0.08057	0.9919 mPa·s
313.15 K, 101.32 kPa, x1 = 0.5367	1.091 mPa·s
313.15 K, 101.32 kPa, x1 = 0.7953	0.909 mPa·s
313.15 K, 101.32 kPa, x1 = 0.8686	0.9003 mPa·s
313.15 K, 101.32 kPa, x1 = 0.9529	0.883 mPa·s
313.15 K, 101.33 kPa, x1 = 0.0999	1.138 mPa·s
313.15 K, 101.33 kPa, x1 = 0.1999	1.361 mPa·s
313.15 K, 101.33 kPa, x1 = 0.2998	1.377 mPa·s
313.15 K, 101.33 kPa, x1 = 0.3982	1.302 mPa·s
313.15 K, 101.33 kPa, x1 = 0.4981	1.204 mPa·s
313.15 K, 101.33 kPa, x1 = 0.5	1.197 mPa·s
313.15 K, 101.33 kPa, x1 = 0.537	1.166 mPa·s
313.15 K, 101.33 kPa, x1 = 0.5981	1.112 mPa·s
313.15 K, 101.33 kPa, x1 = 0.648	1.069 mPa·s
313.15 K, 101.33 kPa, x1 = 0.6997	1.038 mPa·s
313.15 K, 101.33 kPa, x1 = 0.716	1.023 mPa·s
313.15 K, 101.33 kPa, x1 = 0.795	0.978 mPa·s
313.15 K, 101.33 kPa, x1 = 0.7996	0.9799 mPa·s
313.15 K, 101.33 kPa, x1 = 0.846	0.956 mPa·s
313.15 K, 101.33 kPa, x1 = 0.9	0.943 mPa·s
313.15 K, 101.33 kPa, x1 = 0.918	0.937 mPa·s
316.15 K, 101 kPa, x1 = 0.00206	0.6287 mPa·s
316.15 K, 101 kPa, x1 = 0.00628	0.6488 mPa·s
316.15 K, 101 kPa, x1 = 0.01516	0.691 mPa·s
316.15 K, 101 kPa, x1 = 0.03482	0.7825 mPa·s
316.15 K, 101 kPa, x1 = 0.05303	0.8619 mPa·s
316.15 K, 101 kPa, x1 = 0.07366	0.9433 mPa·s
316.15 K, 101 kPa, x1 = 0.08413	0.9807 mPa·s
316.15 K, 101 kPa, x1 = 0.1114	1.065 mPa·s
316.15 K, 101 kPa, x1 = 0.1433	1.14 mPa·s
316.15 K, 101 kPa, x1 = 0.1726	1.188 mPa·s
316.15 K, 101 kPa, x1 = 0.2065	1.223 mPa·s
316.15 K, 101 kPa, x1 = 0.2501	1.242 mPa·s
316.15 K, 101 kPa, x1 = 0.3029	1.238 mPa·s
316.15 K, 101 kPa, x1 = 0.356	1.215 mPa·s
316.15 K, 101 kPa, x1 = 0.4203	1.173 mPa·s
316.15 K, 101 kPa, x1 = 0.4996	1.11 mPa·s
316.15 K, 101 kPa, x1 = 0.5367	1.08 mPa·s
316.15 K, 101 kPa, x1 = 0.5999	1.033 mPa·s
316.15 K, 101 kPa, x1 = 0.6479	1.002 mPa·s
316.15 K, 101 kPa, x1 = 0.7309	0.9596 mPa·s
316.15 K, 101 kPa, x1 = 0.7621	0.9469 mPa·s
316.15 K, 101 kPa, x1 = 0.7953	0.9348 mPa·s
316.15 K, 101 kPa, x1 = 0.8686	0.9128 mPa·s
316.15 K, 101 kPa, x1 = 0.9092	0.9036 mPa·s
316.15 K, 101 kPa, x1 = 0.976	0.8919 mPa·s
316.15 K, 101 kPa, x2 = 0.0145	0.8898 mPa·s
318.15 K, 101.33 kPa, x1 = 0.0999	1.023 mPa·s
318.15 K, 101.33 kPa, x1 = 0.1999	1.222 mPa·s
318.15 K, 101.33 kPa, x1 = 0.2998	1.241 mPa·s
318.15 K, 101.33 kPa, x1 = 0.3982	1.18 mPa·s
318.15 K, 101.33 kPa, x1 = 0.4981	1.099 mPa·s
318.15 K, 101.33 kPa, x1 = 0.5981	1.02 mPa·s
318.15 K, 101.33 kPa, x1 = 0.6997	0.9556 mPa·s
318.15 K, 101.33 kPa, x1 = 0.7996	0.9063 mPa·s
318.15 K, 101.33 kPa, x1 = 0.9	0.8757 mPa·s
320.15 K, 101 kPa, x1 = 0.00206	0.5855 mPa·s
320.15 K, 101 kPa, x1 = 0.00628	0.5992 mPa·s
320.15 K, 101 kPa, x1 = 0.01516	0.6277 mPa·s
320.15 K, 101 kPa, x1 = 0.03482	0.7054 mPa·s
320.15 K, 101 kPa, x1 = 0.05303	0.782 mPa·s
320.15 K, 101 kPa, x1 = 0.07366	0.8648 mPa·s
320.15 K, 101 kPa, x1 = 0.08413	0.9037 mPa·s
320.15 K, 101 kPa, x1 = 0.1114	0.9936 mPa·s
320.15 K, 101 kPa, x1 = 0.1433	1.066 mPa·s
320.15 K, 101 kPa, x1 = 0.1726	1.113 mPa·s
320.15 K, 101 kPa, x1 = 0.2065	1.144 mPa·s
320.15 K, 101 kPa, x1 = 0.2501	1.159 mPa·s
320.15 K, 101 kPa, x1 = 0.3029	1.158 mPa·s
320.15 K, 101 kPa, x1 = 0.356	1.146 mPa·s
320.15 K, 101 kPa, x1 = 0.4203	1.118 mPa·s
320.15 K, 101 kPa, x1 = 0.4996	1.059 mPa·s
320.15 K, 101 kPa, x1 = 0.5367	1.04 mPa·s
320.15 K, 101 kPa, x1 = 0.5999	0.9961 mPa·s
320.15 K, 101 kPa, x1 = 0.6479	0.9686 mPa·s
320.15 K, 101 kPa, x1 = 0.7309	0.9325 mPa·s
320.15 K, 101 kPa, x1 = 0.7621	0.9195 mPa·s
320.15 K, 101 kPa, x1 = 0.7953	0.9079 mPa·s
320.15 K, 101 kPa, x1 = 0.8686	0.8793 mPa·s
320.15 K, 101 kPa, x1 = 0.9092	0.8647 mPa·s
320.15 K, 101 kPa, x1 = 0.976	0.843 mPa·s
320.15 K, 101 kPa, x2 = 0.0145	0.8361 mPa·s
323.15 K, 101.33 kPa, x1 = 0.0999	0.9254 mPa·s
323.15 K, 101.33 kPa, x1 = 0.1999	1.102 mPa·s
323.15 K, 101.33 kPa, x1 = 0.2998	1.124 mPa·s
323.15 K, 101.33 kPa, x1 = 0.3982	1.074 mPa·s
323.15 K, 101.33 kPa, x1 = 0.4981	1.006 mPa·s
323.15 K, 101.33 kPa, x1 = 0.5981	0.9385 mPa·s
323.15 K, 101.33 kPa, x1 = 0.6997	0.8833 mPa·s
323.15 K, 101.33 kPa, x1 = 0.7996	0.8408 mPa·s
323.15 K, 101.33 kPa, x1 = 0.9	0.8148 mPa·s
